Measured values reported in the supplement of paper PMC8285479.
Counter-ions that a name gives are not always drawn. ± gives the standard deviation of the averaged measurements. In all, about 1,900 compounds were measured (“normalised cell viability (NPI; 0 = phenylarsine oxide control, 1 = DMSO control)”: median about 1, lowest 2% from about 0.039 on). The list shows a part of the results.

System: NCI-H1944
Assay: normalised cell viability (NPI; 0 = phenylarsine oxide control, 1 = DMSO control) (fraction of DMSO control); NCI-H1944 is a non-small cell lung cancer line; higher = more viable cells (less compound toxicity)
Settings: 6 days
[1] = glucocorticoid arm: hydrocortisone 2.75 uM co-treatment, compound 1 µM
[2] = glucocorticoid arm: hydrocortisone 2.75 uM co-treatment, compound 5 µM
[3] = glucocorticoid arm: hydrocortisone 2.75 uM pre-treated 2 days and continued, compound 1 µM
[4] = glucocorticoid arm: hydrocortisone 2.75 uM pre-treated 2 days and continued, compound 5 µM
[5] = glucocorticoid arm: vehicle, compound 1 µM
[6] = glucocorticoid arm: vehicle, compound 5 µM
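Further: CTB read-out in 384-well plates, mean of triplicate wells, normalised per plate against 1 µM phenylarsine oxide and 0.1% DMSO, compounds added 24 h after seeding.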

SMILES | normalised cell viability [1] | normalised cell viability [2] | normalised cell viability [3] | normalised cell viability [4] | normalised cell viability [5] | normalised cell viability [6]
CC(=O)NCCc1c[nH]c2ccccc12 [N-Acetyltryptamine] | 0.992 ± 0.0076 | 0.9637 ± 0.0081 | 0.981 ± 0.008 | 0.9655 ± 0.0064 | 0.972 ± 0.014 | 0.9783 ± 0.0058
C=CCN1CC[C@]23CCCC[C@H]2[C@H]1Cc1ccc(O)cc13 [Levallorphan tartrate] | 1 ± 0.0089 | 1 ± 0.023 | 1.003 ± 0.0058 | 1.06 ± 0.064 | 0.9917 ± 0.0025 | 0.863 ± 0.23
CCCN1CC[C@@H]2c3cc(O)ccc3CC[C@@H]21 (racemic) [cis(+/-)-8-OH-PBZI hydrobromide] | 0.993 ± 0.011 | 0.975 ± 0.021 | 1.01 | 1.02 ± 0.092 | 0.9937 ± 0.0071 | 1.007 ± 0.0058
Cc1cc2c(C(C)C)c(O)c(O)c(C=O)c2c(O)c1-c1c(C)cc2c(C(C)C)c(O)c(O)c(C=O)c2c1O | 0.988 ± 0.015 | 0.618 ± 0.12 | 0.99 ± 0.01 | 0.814 ± 0.04 | 0.9927 ± 0.0075 | 0.8493 ± 0.0076
O=c1[nH]c2ccccc2n1C1CCN(CCCC(c2ccc(F)cc2)c2ccc(F)cc2)CC1 [Pimozide] | 1.017 ± 0.0058 | 1.04 ± 0.021 | 1.02 | 1.04 ± 0.01 | 1.013 ± 0.0058 | 1.02 ± 0.017
CN1CCN(c2nc3ccccc3nc2Cl)CC1 | 1.027 ± 0.0058 | 0.999 ± 0.0096 | 1.003 ± 0.0058 | 1.01 | 1.007 ± 0.0058 | 1.01
CN(C)C(=O)Oc1ccc[n+](C)c1 [Pyridostigmine bromide] | 1.007 ± 0.0058 | 1.01 ± 0.015 | 1.01 ± 0.026 | 1.01 ± 0.01 | 1.007 ± 0.0058 | 0.999 ± 0.01
CN(C)C(=O)Oc1ccc[n+](C)c1 [Pyridostigmine Bromide] | 0.9867 ± 0.0038 | 0.9567 ± 0.0076 | 1.001 ± 0.009 | 0.978 ± 0.016 | 0.983 ± 0.01 | 0.998 ± 0.0017
N[C@H](C(=O)O)c1cc(O)no1 (racemic) [(±)-Ibotenic acid] | 1.002 ± 0.0072 | 1 ± 0.032 | 0.991 ± 0.024 | 1.04 ± 0.096 | 0.9837 ± 0.0055 | 0.987 ± 0.012
CCc1c(C(=O)OC)ncc2[nH]c3cc(OC)c(OC)cc3c12 [Methyl 6,7-dimethoxy-4-ethyl-beta-carboline-3-carboxylate] | 1.01 ± 0.016 | 1.023 ± 0.0058 | 1.01 ± 0.01 | 1.03 ± 0.01 | 0.9997 ± 0.0091 | 1.003 ± 0.0058
N#CC(C#N)=Cc1ccc([N+](=O)[O-])c(O)c1 [Tyrphostin AG 126] | 1.007 ± 0.0058 | 0.988 ± 0.035 | 0.997 ± 0.015 | 1.02 ± 0.01 | 1.013 ± 0.0058 | 1.01 ± 0.01
O=S1(=O)N(CCN2CC=C(c3c[nH]c4cc(F)ccc34)CC2)c2cccc3c2N1CCC3 | 0.9817 ± 0.0072 | 0.932 ± 0.027 | 0.9923 ± 0.0076 | 1.05 ± 0.092 | 0.9943 ± 0.0032 | 1.002 ± 0.0076
CCN(CC)C(=O)c1ccc(C2=CC3(CCNCC3)Oc3cccc(O)c32)cc1 | 1.01 | 1.04 ± 0.015 | 1.01 ± 0.019 | 1.053 ± 0.0058 | 1.01 ± 0.01 | 1.01
CCn1cnc2c(Nc3cccc(Cl)c3)nc(N[C@@H]3CCCC[C@@H]3N)nc21 | 0.783 ± 0.025 | 0.0569 ± 0.018 | 1.01 ± 0.011 | 0.182 ± 0.0028 | 0.321 ± 0.043 | 0.0192 ± 0.0037
Clc1ccc(N2CCN(Cc3c[nH]c4ncccc34)CC2)cc1 [L-745,870 hydrochloride] | 0.9937 ± 0.0067 | 0.924 ± 0.025 | 1.01 ± 0.015 | 1.04 ± 0.058 | 1.005 ± 0.0081 | 1.01 ± 0.011
O=c1[nH]c2ccc(Cl)cc2c(N[C@@H]2CN3CCC2CC3)c1-c1nc2ccccc2[nH]1 | 0.43 ± 0.0081 | 0.0244 ± 0.0034 | 0.717 ± 0.02 | 0.0576 ± 0.015 | 0.0195 ± 0.0053 | 0.00294 ± 0.0014
CNCC(O)c1ccc(O)cc1 (stereo not given) [Synephrine] | 1.01 ± 0.01 | 1.04 ± 0.02 | 1.013 ± 0.0058 | 1.04 | 1.01 | 1.001 ± 0.0076
CNCC(O)c1ccc(O)cc1 (stereo not given) [Synephrine HCl] | 1 ± 0.0095 | 1.04 ± 0.01 | 1 ± 0.019 | 1.05 ± 0.011 | 1.007 ± 0.0058 | 0.9953 ± 0.0072
C#CCOC(=O)C1=CCCN(C)C1 [Arecaidine propargyl ester hydrobromide] | 0.9933 ± 0.0059 | 1.013 ± 0.0058 | 0.982 ± 0.0053 | 0.998 ± 0.032 | 0.987 ± 0.0044 | 0.9863 ± 0.0055
O=C(Cc1ccc(Cl)c(Cl)c1)N1CCCCC1CN1CCCC1 (stereo not given) | 0.9847 ± 0.0031 | 0.965 ± 0.016 | 1 ± 0.018 | 1.01 ± 0.013 | 0.9753 ± 0.0031 | 0.9723 ± 0.0075
O=C(OC1CCN(CCCl)CC1)C(c1ccccc1)c1ccccc1 [4-Diphenylacetoxy-N-(2-chloroethyl)piperidine hydrochloride] | 1 ± 0.022 | 0.926 ± 0.026 | 1.02 ± 0.021 | 0.962 ± 0.033 | 1.007 ± 0.0058 | 1.01
CC(C)C[C@H]1C(=O)N2CCC[C@H]2[C@]2(O)O[C@](NC(=O)[C@@H]3C=C4c5cccc6[nH]c(Br)c(c56)C[C@H]4N(C)C3)(C(C)C)C(=O)N12 [(+)-Bromocriptine methanesulfonate] | 1.005 ± 0.0081 | 1.02 ± 0.015 | 1.003 ± 0.0061 | 1.01 ± 0.017 | 0.9857 ± 0.007 | 1.003 ± 0.0058
c1ccc(CCCN2CCN(CCOC(c3ccccc3)c3ccccc3)CC2)cc1 | 0.952 ± 0.0092 | 0.893 ± 0.03 | 0.987 ± 0.007 | 1.02 ± 0.011 | 1.007 ± 0.0058 | 1.01 ± 0.012
C=CCN1CC[C@]23c4c5ccc(O)c4O[C@H]2/C(=N/N=C2\CC[C@@]4(O)[C@H]6Cc7ccc(O)c8c7[C@@]4(CCN6CC=C)[C@H]2O8)CC[C@@]3(O)[C@H]1C5 [Naloxonazine dihydrochloride] | 0.9893 ± 0.008 | 1.03 ± 0.02 | 1 ± 0.01 | 1.03 ± 0.064 | 0.9877 ± 0.0015 | 1.01 ± 0.01
COc1cc(C(O)CN)ccc1O (racemic) [(±)-Normetanephrine hydrochloride] | 0.9973 ± 0.0025 | 1.01 ± 0.021 | 1.01 ± 0.01 | 0.867 ± 0.27 | 0.9953 ± 0.0045 | 1 ± 0.016
